According to the supplement of paper PMC10338343:
± gives the standard deviation. The list shows a part of the results, in another mix than the full data.

Tested on: MIWI (PIWIL1) piRISC loaded with L1MC piRNA (30 nt)
Assay: pre-steady-state target cleavage rate (min^-1); MIWI and MILI are mouse PIWI proteins and EfPiwi is from a freshwater sponge; tags in brackets are library labels; higher = faster piRNA-guided slicing of the target
Settings: guide: L1MC piRNA 5'p-UAACUAAAUACUAUGCAAGCUGUAGGUCCU
Procedure, shortened: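 A transcribed, DNA-blocked target RNA library (0.1 nM) and 1 nM active affinity-purified piRISC bearing one synthetic guide were incubated in HEPES–potassium acetate buffer at 33 °C for 0–8 or 0–960 min, either with or without 500 nM GTSF1 partner protein. Uncleaved targets were sequenced, normalised to depth and to weakly complementary targets, and pooled over three trials, with k3 capped at 0.0001 min^-1. The pre-steady-state cleavage rate was derived with a burst-and-steady-state fit.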

[1] = auxiliary factor: 500 nM mouse GTSF1
[2] = auxiliary factor: none (no GTSF1)

| Sequence | pre-steady-state target cleavage rate [1] | pre-steady-state target cleavage rate [2] |
| --- | --- | --- |
| UCCUGGAACAGCUAGGAUAGUAUUUAGUUA | 0.906 ± 0.064 | 0.0058 ± 0.0023 |
| UCGACCUACAGCUAGCAUAGUAAUUAGUUA | 0.852 ± 0.048 | 0.00739 ± 0.0019 |
| UCCACCUACAGCUUGCAAAGUAUUUAGUUA | 0.937 ± 0.044 | 0.0318 ± 0.0069 |
| UCCUGGAUGAGCUUGCAUAGUAUAUUGUUA | 0.165 ± 0.021 | 0.0157 ± 0.004 |
| UCCUCCUACAGCUUGCAUAGUAUUUUGUUA | 0.728 ± 0.034 | 0.0323 ± 0.0071 |
| UCCUGGAACAGCUUGCUUAGUAUUUACUUA | 0.443 ± 0.044 | 0.0281 ± 0.0068 |
| UCCUCCUACAGCUUCCUUAGUAUUUAGUUA | 0.357 ± 0.037 | 0.00197 ± 0.0016 |
| UCCUGGUACAGCUUGCAUACUAUAUAGUUA | 0.163 ± 0.035 | 0.00542 ± 0.0028 |
| UCCUGGUACAGCUUGCAUAGUAUUUAUUUA | 0.27 ± 0.056 | 0.0227 ± 0.0054 |
| UCCUGCUACAGCUUGCAUUCUAUUUAGUUA | 0.224 ± 0.021 | 0.00933 ± 0.0034 |
| AGGACCUACUCGUUGCAUAGUAUUUAGAAA | 0.232 ± 0.03 | 0.00601 ± 0.0021 |
| UGGACCUAAGCUUGCAUAGUAUUUAGUUA | 1.27 ± 0.083 | 0.0446 ± 0.012 |
| UCCUCCUACAGCUUAGCAUAGUAUUUAGUUA | 1.31 ± 0.054 | 0.0108 ± 0.0023 |
| UCCUCCUACAGCUUGCAAAGUAUUUUGUUA | 0.548 ± 0.029 | 0.0121 ± 0.0023 |
| UCCUGGAACAGCUUGCAUAGUAAUUUGUUA | 0.203 ± 0.031 | 0.0165 ± 0.0051 |
| UCCUGGAACAGCUUGCUUAGUAUAUAGUUA | 0.544 ± 0.047 | 0.0195 ± 0.0056 |
| UGGACCUACAGCUUGCAUAGAAUUUACUUA | 0.188 ± 0.026 | 0.0132 ± 0.0038 |
| AGGACCUACAGCUUUCAUAGUAUUUAGUUA | 0.644 ± 0.025 | 0.0459 ± 0.0095 |
| AGGACCAUCAGCUUGCAUAGUAUUUUCAAA | 0.404 ± 0.054 | 0.00578 ± 0.0024 |
| UCCUGCUACAGCUUGCAUUGUAUUUAGUAA | 0.464 ± 0.039 | 0.00925 ± 0.0026 |

| Sequence | pre-steady-state target cleavage rate [1] | pre-steady-state target cleavage rate [2] |
| --- | --- | --- |
| UCCUGGAUCUGCUUGCAAAGUAUUUAGUUA | 0.259 ± 0.028 | 0.0178 ± 0.0051 |
| UCGACCUACACCUUGGAUAGUAUUUAGUUA | 0.854 ± 0.076 | 0.0364 ± 0.0044 |
| UCCUGGAUGUGCUUGCAUAGUAAUUUGUUA | 0.0171 ± 0.0079 | 0.00536 ± 0.0029 |
| AGGACCAUCAGCUUGCAUAGUAUUUACAAA | 0.395 ± 0.044 | 0.00807 ± 0.0029 |
| UGGACCUACAGCUUGCAAAGUUUUUAGUUA | 0.403 ± 0.022 | 0.0182 ± 0.0051 |
| UCCUGGAUGUCCUUGCAUAUUAUUUAGUUA | 0.0546 ± 0.013 | 0.00824 ± 0.003 |
| AGGAGCUACAGCUUGCAUAGUAUAUAGUUA | 0.762 ± 0.069 | 0.0433 ± 0.0094 |
| UGGACCUACACCUUGCAUAGUUUUUAGUUA | 0.245 ± 0.019 | 0.022 ± 0.0047 |
| UGGACCUACAGGUUGCAUAGUAUUUAGUUA | 1.14 ± 0.088 | 0.0575 ± 0.0096 |
| UCCUGGAUCAGCUUGCAUAGUUUUAAGUUA | 0.0548 ± 0.01 | 0.00852 ± 0.003 |
| AGGACCUACAGCUUGCAUAGUAUUAUAGUUA | 1.05 ± 0.078 | 0.0707 ± 0.015 |
| UCCUCCUACAGCUUGCAUAGUAUUAAGAUA | 0.255 ± 0.045 | 0.00327 ± 0.0025 |
| UCCUGGUACAGGUUGCAUUGUAUUUAGUUA | 0.545 ± 0.064 | 0.0136 ± 0.004 |
| UCGACCUACAGCUCUGCAUAGUAUUUAGUUA | 1.32 ± 0.067 | 0.0476 ± 0.0099 |
| UGCAGCUACAGCUUGCAUAGUAUUUAGUUA | 1.21 ± 0.081 | 0.0733 ± 0.013 |
| UCCUGGAUGUCCGUGCAUAGUAUUUAGUUA | 0.00772 ± 0.0046 | 0.00337 ± 0.0029 |
| UCGACCUACAGGUUGCUUAGUAUUUAGUUA | 1.29 ± 0.062 | 0.0168 ± 0.0036 |
| UCCUCCUACUGCUUGCAUAGUAUUUUGUUA | 0.615 ± 0.023 | 0.0334 ± 0.0062 |
| UCCUGGAUCAGCUUGCAUAGUAUUUUCUUA | 0.119 ± 0.023 | 0.0119 ± 0.0036 |
| UCCUGGUAGAGCUUGCAUAGUAUUUAGAUA | 0.28 ± 0.031 | 0.0153 ± 0.0049 |

| Sequence | pre-steady-state target cleavage rate [1] | pre-steady-state target cleavage rate [2] |
| --- | --- | --- |
| UCGACCUACAGCAUUGCAUAGUAUUUAGUUA | 1.19 ± 0.082 | 0.0581 ± 0.012 |
| UCCUGGUACUGCUUGCUUAGUAUUUAGUUA | 0.627 ± 0.04 | 0.025 ± 0.0057 |
| UCGUCCUACAGCUUGCAUAGUAUUUUCAAA | 0.386 ± 0.043 | 0.00313 ± 0.0025 |
| UCCUCCUACAGCUUGCAUACUAUUUUGUUA | 0.164 ± 0.017 | 0.0127 ± 0.0026 |
| UCCUGGUACAGCUUGCAUAGAAUAUAGUUA | 0.218 ± 0.036 | 0.00623 ± 0.0041 |
| UCCUGCUUCAGCUUGCUUAGUAUUUAGUUA | 1.19 ± 0.065 | 0.0264 ± 0.0058 |
| AGGACCUACAGCUUGCAUAGUAUUUUCUAA | 0.295 ± 0.035 | 0.0121 ± 0.0048 |
| UCGACCUUCAGCUUGCAUAGUAUUUUGUUA | 0.947 ± 0.053 | 0.0436 ± 0.0073 |
| UCCUGCUUCAGGUUGCAUAGUAUUUAGUUA | 0.854 ± 0.033 | 0.0169 ± 0.0032 |
| AGGACCUACAGCUUGCAUAGUUUUUUGUUA | 0.316 ± 0.024 | 0.0319 ± 0.0071 |
| UCCUGGAUGUGCUUGCAUAGUAUUGAGUUA | 0.189 ± 0.025 | 0.0273 ± 0.0055 |
| UCCUGGAUCAGCUUGCAUAGUAUUUAGUAA | 0.96 ± 0.047 | 0.0287 ± 0.0064 |
| UCCUGGAUGUGCUUGCAAAGUAUAUAGUUA | 0.0183 ± 0.0043 | 0.00652 ± 0.0024 |
| UCCUCCUACAGCAUUGCAUAGUAUUUAGUUA | 0.796 ± 0.051 | 0.0258 ± 0.0037 |
| AGGACCUACAGGUUGCAUAGUAUUUACAAA | 0.373 ± 0.054 | 0.00359 ± 0.0023 |
| AGGACCUACACGAUGCAUAGUAUUUAGUAA | 0.668 ± 0.047 | 0.00365 ± 0.0024 |
| UCCUGGAACGAGCUUGCAUAGUAUUUAGUUA | 0.65 ± 0.068 | 0.0352 ± 0.0079 |
| UCCUGGAUCAGCAUGGAUAGUAUUUAGUUA | 0.623 ± 0.072 | 0.00932 ± 0.0033 |
| UCGACCUACAGCAUCCAUAGUAUUUAGUUA | 0.137 ± 0.028 | 0.00199 ± 0.0019 |
| UCGACCUACAGCUUGCAUAGUAUUUAGAUA | 0.564 ± 0.043 | 0.0299 ± 0.0074 |
